{
  "source": "the supplement of paper PMC8728848",
  "binders": {"B1": {"name": "STA (Solanum tuberosum), Q9S8M0 (protein)", "chain": "NASPPSPSPLPYPQCGMKKGGGKCIKTGECCSIWGWCGTTNAYCSPGYCQKQCPGPYPEGRCGWQANGKSCPTGTGQCCSNGGWCGTTSDYCASKNCQSQCKLPSPPPPPPPPSPPPPSPPSPPPPSPPPPPPPSPPPPSPPPPSPSPPPPPASPPPPPPALPYPQCGIKKGGGKCIKTGECCSIWGWCGTTNAYCSPGYCQKQCPGPYPEGRCGWQANGKSCPTGTGHCCSNAGWCGTTSDYCAPVNCQAQCNTTTLTSPIKNRMRGIESFMLNVV"}},
  "test_in_all_cases": "glycan array binding signal (z-score within array); higher = stronger binding",
  "settings_in_all_cases": "glycan notation: IUPAC condensed, linker removed",
  "key": {"[1]": {"molecular_target": "Gal(b1-3)GalNAc", "outline": "(§1)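 Negative Z-scores can be read as non-binding. The Z-score is calculated within each array and then averaged across arrays of one protein sequence at different concentrations or buffers and across linkers. Arrays, 3228 in all, were curated from the Consortium for Functional Glycomics database and kept only where the protein sequence was available.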"}, "[2]": {"molecular_target": "Gal(b1-3)GalNAc(b1-3)Gal(a1-4)Gal(b1-4)Glc", "outline": "as §1"}, "[3]": {"molecular_target": "Gal(b1-3)GalNAc(b1-3)Gal(b1-4)Glc", "outline": "as §1"}, "[4]": {"molecular_target": "Gal(b1-3)GalNAc(b1-3)Gal(b1-4)GlcNAc", "outline": "as §1"}, "[5]": {"molecular_target": "Gal(b1-3)GalNAc(b1-4)Gal(b1-4)Glc", "outline": "as §1"}, "[6]": {"molecular_target": "Gal(b1-3)GalNAc(b1-4)[Neu5Ac(a2-3)]Gal(b1-4)Glc", "outline": "as §1"}, "[7]": {"molecular_target": "Gal(b1-3)GlcNAc(b1-3)Gal(b1-3)GlcNAc", "outline": "as §1"}, "[8]": {"molecular_target": "Gal(b1-3)[Fuc(a1-4)]GlcNAc", "outline": "as §1"}, "[9]": {"molecular_target": "Gal(b1-3)[Fuc(a1-4)]GlcNAc(b1-3)Gal(b1-3)[Fuc(a1-4)]GlcNAc", "outline": "as §1"}, "[10]": {"molecular_target": "Gal(b1-3)[Fuc(a1-4)]GlcNAc(b1-3)Gal(b1-4)GlcNAc", "outline": "as §1"}, "[11]": {"molecular_target": "Gal(b1-3)[Fuc(a1-4)]GlcNAc(b1-3)Gal(b1-4)[Fuc(a1-3)]GlcNAc", "outline": "as §1"}, "[12]": {"molecular_target": "Gal(b1-3)[GlcNAc(b1-6)]GalNAc", "outline": "as §1"}, "[13]": {"molecular_target": "Gal(b1-3)[GlcNAc(b1-6)]GlcNAc", "outline": "as §1"}, "[14]": {"molecular_target": "Gal(b1-3)[Neu5Ac(a2-6)]GalNAc", "outline": "as §1"}, "[15]": {"molecular_target": "Gal(b1-3)[Neu5Ac(a2-6)]GlcNAc", "outline": "as §1"}, "[16]": {"molecular_target": "Gal(b1-3)[Neu5Ac(a2-6)]GlcNAc(a1-4)Gal(b1-4)Glc", "outline": "as §1"}, "[17]": {"molecular_target": "Gal(b1-3)[Neu5Ac(b2-6)]GlcNAc", "outline": "as §1"}, "[18]": {"molecular_target": "Gal(b1-4)GalNAc(a1-3)[Fuc(a1-2)]Gal(b1-4)GlcNAc", "outline": "as §1"}, "[19]": {"molecular_target": "Gal(b1-4)GalNAc(b1-3)[Fuc(a1-2)]Gal(b1-4)GlcNAc", "outline": "as §1"}, "[20]": {"molecular_target": "Gal(b1-4)Glc", "outline": "as §1"}, "[21]": {"molecular_target": "Gal(b1-4)Glc6S", "outline": "as §1"}, "[22]": {"molecular_target": "Gal(b1-4)GlcNAc", "outline": "as §1"}, "[23]": {"molecular_target": "Gal(b1-4)GlcNAc(b1-2)Man(a1-3)[Gal(b1-4)GlcNAc(b1-2)Man(a1-6)]Man(b1-4)GlcNAc(b1-4)GlcNAc", "outline": "as §1"}, "[24]": {"molecular_target": "Gal(b1-4)GlcNAc(b1-3)Gal(b1-3)GlcNAc", "outline": "as §1"}, "[25]": {"molecular_target": "Gal(b1-4)GlcNAc(b1-3)Gal(b1-4)Glc", "outline": "as §1"}, "[26]": {"molecular_target": "Gal(b1-4)GlcNAc(b1-3)Gal(b1-4)GlcNAc", "outline": "as §1"}, "[27]": {"molecular_target": "Gal(b1-4)GlcNAc(b1-3)Gal(b1-4)GlcNAc(b1-3)Gal(b1-4)GlcNAc", "outline": "as §1"}, "[28]": {"molecular_target": "Gal(b1-4)GlcNAc(b1-3)Gal(b1-4)[Fuc(a1-3)]GlcNAc(b1-3)Gal(b1-4)[Fuc(a1-3)]GlcNAc", "outline": "as §1"}, "[29]": {"molecular_target": "Gal(b1-4)GlcNAc(b1-3)GalNAc", "outline": "as §1"}, "[30]": {"molecular_target": "Gal(b1-4)GlcNAc(b1-3)[Gal(b1-4)GlcNAc(b1-6)]GalNAc", "outline": "as §1"}, "[31]": {"molecular_target": "Gal(b1-4)GlcNAc(b1-6)GalNAc", "outline": "as §1"}, "[32]": {"molecular_target": "Gal(b1-4)GlcNAc(b1-6)[Gal(b1-3)]GalNAc", "outline": "as §1"}, "[33]": {"molecular_target": "Gal(b1-4)GlcNAc(b1-6)[Gal(b1-3)]GlcNAc", "outline": "as §1"}, "[34]": {"molecular_target": "Gal3S(b1-3)GalNAc", "outline": "as §1"}, "[35]": {"molecular_target": "Gal3S(b1-3)GlcNAc", "outline": "as §1"}, "[36]": {"molecular_target": "Gal3S(b1-3)[Fuc(a1-4)]GlcNAc", "outline": "as §1"}},
  "note": "The list shows a part of the results.",
  "data": [
    {"binder": "B1", "values": [
      {"measurement": "glycan array binding signal (z-score)", "setting": "[1]", "value": -0.586},
      {"measurement": "glycan array binding signal (z-score)", "setting": "[2]", "value": -0.588},
      {"measurement": "glycan array binding signal (z-score)", "setting": "[3]", "value": -0.586},
      {"measurement": "glycan array binding signal (z-score)", "setting": "[4]", "value": 2.07},
      {"measurement": "glycan array binding signal (z-score)", "setting": "[5]", "value": -0.595},
      {"measurement": "glycan array binding signal (z-score)", "setting": "[6]", "value": -0.576},
      {"measurement": "glycan array binding signal (z-score)", "setting": "[7]", "value": -0.587},
      {"measurement": "glycan array binding signal (z-score)", "setting": "[8]", "value": -0.59},
      {"measurement": "glycan array binding signal (z-score)", "setting": "[9]", "value": -0.583},
      {"measurement": "glycan array binding signal (z-score)", "setting": "[10]", "value": -0.584},
      {"measurement": "glycan array binding signal (z-score)", "setting": "[11]", "value": -0.59},
      {"measurement": "glycan array binding signal (z-score)", "setting": "[12]", "value": -0.587},
      {"measurement": "glycan array binding signal (z-score)", "setting": "[13]", "value": -0.58},
      {"measurement": "glycan array binding signal (z-score)", "setting": "[14]", "value": -0.584},
      {"measurement": "glycan array binding signal (z-score)", "setting": "[15]", "value": -0.574},
      {"measurement": "glycan array binding signal (z-score)", "setting": "[16]", "value": -0.594},
      {"measurement": "glycan array binding signal (z-score)", "setting": "[17]", "value": -0.57},
      {"measurement": "glycan array binding signal (z-score)", "setting": "[18]", "value": 1.81},
      {"measurement": "glycan array binding signal (z-score)", "setting": "[19]", "value": 1.88},
      {"measurement": "glycan array binding signal (z-score)", "setting": "[20]", "value": -0.586},
      {"measurement": "glycan array binding signal (z-score)", "setting": "[21]", "value": -0.533},
      {"measurement": "glycan array binding signal (z-score)", "setting": "[22]", "value": 1.88},
      {"measurement": "glycan array binding signal (z-score)", "setting": "[23]", "value": -0.538},
      {"measurement": "glycan array binding signal (z-score)", "setting": "[24]", "value": -0.578},
      {"measurement": "glycan array binding signal (z-score)", "setting": "[25]", "value": 1.35},
      {"measurement": "glycan array binding signal (z-score)", "setting": "[26]", "value": 1.77},
      {"measurement": "glycan array binding signal (z-score)", "setting": "[27]", "value": 2.26},
      {"measurement": "glycan array binding signal (z-score)", "setting": "[28]", "value": -0.587},
      {"measurement": "glycan array binding signal (z-score)", "setting": "[29]", "value": -0.564},
      {"measurement": "glycan array binding signal (z-score)", "setting": "[30]", "value": 1.84},
      {"measurement": "glycan array binding signal (z-score)", "setting": "[31]", "value": 1.9},
      {"measurement": "glycan array binding signal (z-score)", "setting": "[32]", "value": 1.32},
      {"measurement": "glycan array binding signal (z-score)", "setting": "[33]", "value": 1.97},
      {"measurement": "glycan array binding signal (z-score)", "setting": "[34]", "value": -0.559},
      {"measurement": "glycan array binding signal (z-score)", "setting": "[35]", "value": -0.54},
      {"measurement": "glycan array binding signal (z-score)", "setting": "[36]", "value": -0.555}
    ]}
  ]
}
